In article PMC9792355:
No constants are given. Whether binding was seen depends on the method and setting. In cells and extracts the contact can be indirect. Some entries that bind do so weakly or less than the wild type.

Chains of the proteins cited; added tags and fusions are not shown. Residues count along the entry.
UniProt Q9H3Y6: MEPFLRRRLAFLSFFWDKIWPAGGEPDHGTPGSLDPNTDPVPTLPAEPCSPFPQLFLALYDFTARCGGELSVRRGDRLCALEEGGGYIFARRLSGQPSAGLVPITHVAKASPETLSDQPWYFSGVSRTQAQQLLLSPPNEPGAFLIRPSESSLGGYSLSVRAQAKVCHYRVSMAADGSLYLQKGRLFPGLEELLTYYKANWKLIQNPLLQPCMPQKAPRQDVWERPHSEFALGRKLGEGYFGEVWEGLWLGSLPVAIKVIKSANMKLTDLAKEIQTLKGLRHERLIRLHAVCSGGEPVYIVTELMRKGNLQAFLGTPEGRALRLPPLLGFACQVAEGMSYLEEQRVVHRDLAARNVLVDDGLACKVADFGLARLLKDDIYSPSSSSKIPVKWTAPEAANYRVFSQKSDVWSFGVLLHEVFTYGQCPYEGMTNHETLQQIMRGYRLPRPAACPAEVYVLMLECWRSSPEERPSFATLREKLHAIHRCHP
UniProt P42685: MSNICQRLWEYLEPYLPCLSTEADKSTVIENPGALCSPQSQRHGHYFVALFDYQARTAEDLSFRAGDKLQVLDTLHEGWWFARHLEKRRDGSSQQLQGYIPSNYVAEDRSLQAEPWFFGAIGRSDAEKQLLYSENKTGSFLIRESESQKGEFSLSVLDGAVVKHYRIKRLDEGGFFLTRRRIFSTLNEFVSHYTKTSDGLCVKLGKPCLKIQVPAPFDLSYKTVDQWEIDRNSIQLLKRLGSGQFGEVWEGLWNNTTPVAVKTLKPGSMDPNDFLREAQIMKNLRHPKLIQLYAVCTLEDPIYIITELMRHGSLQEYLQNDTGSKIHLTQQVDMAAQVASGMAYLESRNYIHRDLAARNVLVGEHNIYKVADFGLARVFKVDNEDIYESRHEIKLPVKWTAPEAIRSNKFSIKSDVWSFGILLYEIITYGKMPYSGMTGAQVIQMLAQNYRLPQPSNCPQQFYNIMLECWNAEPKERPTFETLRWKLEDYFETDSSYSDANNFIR
UniProt P06239: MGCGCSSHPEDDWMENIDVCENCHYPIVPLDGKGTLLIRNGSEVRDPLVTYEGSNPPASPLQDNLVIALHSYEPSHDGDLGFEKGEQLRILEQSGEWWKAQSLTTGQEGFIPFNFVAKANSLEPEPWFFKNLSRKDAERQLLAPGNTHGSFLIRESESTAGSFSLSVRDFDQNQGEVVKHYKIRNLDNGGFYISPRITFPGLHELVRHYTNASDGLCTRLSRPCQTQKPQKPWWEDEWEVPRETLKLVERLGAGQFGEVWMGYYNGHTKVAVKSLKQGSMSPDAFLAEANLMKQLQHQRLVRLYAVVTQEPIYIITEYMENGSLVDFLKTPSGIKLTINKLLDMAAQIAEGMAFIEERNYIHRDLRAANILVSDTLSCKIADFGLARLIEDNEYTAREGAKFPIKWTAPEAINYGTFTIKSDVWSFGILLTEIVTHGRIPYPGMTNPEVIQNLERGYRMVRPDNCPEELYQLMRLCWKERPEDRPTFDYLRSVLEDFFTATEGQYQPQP
UniProt P08631, residues 22-526: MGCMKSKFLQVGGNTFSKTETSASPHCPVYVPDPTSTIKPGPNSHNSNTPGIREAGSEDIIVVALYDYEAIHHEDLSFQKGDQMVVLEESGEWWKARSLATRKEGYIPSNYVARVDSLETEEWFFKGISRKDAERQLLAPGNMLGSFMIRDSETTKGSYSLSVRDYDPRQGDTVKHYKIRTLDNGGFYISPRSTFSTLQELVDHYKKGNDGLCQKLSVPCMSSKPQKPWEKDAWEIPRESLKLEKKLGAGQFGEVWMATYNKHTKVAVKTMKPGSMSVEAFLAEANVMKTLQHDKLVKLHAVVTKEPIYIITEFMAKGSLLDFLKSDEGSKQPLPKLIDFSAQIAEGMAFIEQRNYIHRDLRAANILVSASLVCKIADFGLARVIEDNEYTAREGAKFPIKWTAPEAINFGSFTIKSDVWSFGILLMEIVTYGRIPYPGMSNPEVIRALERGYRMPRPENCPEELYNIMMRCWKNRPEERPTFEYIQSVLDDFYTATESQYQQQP
UniProt P07947: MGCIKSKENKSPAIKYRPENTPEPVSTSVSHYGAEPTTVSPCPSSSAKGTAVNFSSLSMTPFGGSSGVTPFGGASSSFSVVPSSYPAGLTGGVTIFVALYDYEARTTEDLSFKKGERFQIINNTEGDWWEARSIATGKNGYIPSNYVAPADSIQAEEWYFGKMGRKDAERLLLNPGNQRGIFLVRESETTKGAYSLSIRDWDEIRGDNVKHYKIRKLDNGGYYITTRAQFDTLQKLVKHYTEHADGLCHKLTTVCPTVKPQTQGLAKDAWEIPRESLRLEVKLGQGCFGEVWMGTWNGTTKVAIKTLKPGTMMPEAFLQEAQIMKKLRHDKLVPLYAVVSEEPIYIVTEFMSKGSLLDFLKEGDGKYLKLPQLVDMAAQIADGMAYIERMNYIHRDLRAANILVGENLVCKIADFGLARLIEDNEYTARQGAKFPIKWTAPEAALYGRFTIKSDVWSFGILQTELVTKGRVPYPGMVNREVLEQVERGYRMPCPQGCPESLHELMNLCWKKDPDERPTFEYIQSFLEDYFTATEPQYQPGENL
UniProt P07948: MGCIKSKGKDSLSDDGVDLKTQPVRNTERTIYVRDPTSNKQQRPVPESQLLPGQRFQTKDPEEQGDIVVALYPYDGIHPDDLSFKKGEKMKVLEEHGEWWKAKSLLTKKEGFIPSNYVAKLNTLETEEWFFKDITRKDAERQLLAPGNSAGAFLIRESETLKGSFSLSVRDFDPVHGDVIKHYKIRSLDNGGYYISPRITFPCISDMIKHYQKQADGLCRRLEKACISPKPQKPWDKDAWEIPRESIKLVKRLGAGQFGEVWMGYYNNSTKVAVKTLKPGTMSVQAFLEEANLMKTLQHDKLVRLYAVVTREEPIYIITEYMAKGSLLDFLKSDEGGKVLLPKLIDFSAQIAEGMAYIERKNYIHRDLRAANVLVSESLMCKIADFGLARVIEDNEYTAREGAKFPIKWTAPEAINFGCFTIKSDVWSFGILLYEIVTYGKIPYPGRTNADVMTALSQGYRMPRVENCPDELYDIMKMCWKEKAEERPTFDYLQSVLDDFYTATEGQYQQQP
UniProt P51451: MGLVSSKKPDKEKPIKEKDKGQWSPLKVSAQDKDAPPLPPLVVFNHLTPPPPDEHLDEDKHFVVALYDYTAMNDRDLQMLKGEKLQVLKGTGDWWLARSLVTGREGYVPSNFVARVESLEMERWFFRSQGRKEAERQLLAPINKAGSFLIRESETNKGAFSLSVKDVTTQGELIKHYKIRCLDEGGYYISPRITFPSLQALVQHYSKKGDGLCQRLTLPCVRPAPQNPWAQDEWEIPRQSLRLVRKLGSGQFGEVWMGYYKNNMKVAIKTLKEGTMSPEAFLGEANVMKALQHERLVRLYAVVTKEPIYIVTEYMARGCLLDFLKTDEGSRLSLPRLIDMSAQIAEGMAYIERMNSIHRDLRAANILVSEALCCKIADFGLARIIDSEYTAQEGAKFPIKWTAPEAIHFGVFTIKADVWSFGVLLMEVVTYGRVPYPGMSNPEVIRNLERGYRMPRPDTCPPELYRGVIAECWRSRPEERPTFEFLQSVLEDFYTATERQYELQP
UniProt P06241: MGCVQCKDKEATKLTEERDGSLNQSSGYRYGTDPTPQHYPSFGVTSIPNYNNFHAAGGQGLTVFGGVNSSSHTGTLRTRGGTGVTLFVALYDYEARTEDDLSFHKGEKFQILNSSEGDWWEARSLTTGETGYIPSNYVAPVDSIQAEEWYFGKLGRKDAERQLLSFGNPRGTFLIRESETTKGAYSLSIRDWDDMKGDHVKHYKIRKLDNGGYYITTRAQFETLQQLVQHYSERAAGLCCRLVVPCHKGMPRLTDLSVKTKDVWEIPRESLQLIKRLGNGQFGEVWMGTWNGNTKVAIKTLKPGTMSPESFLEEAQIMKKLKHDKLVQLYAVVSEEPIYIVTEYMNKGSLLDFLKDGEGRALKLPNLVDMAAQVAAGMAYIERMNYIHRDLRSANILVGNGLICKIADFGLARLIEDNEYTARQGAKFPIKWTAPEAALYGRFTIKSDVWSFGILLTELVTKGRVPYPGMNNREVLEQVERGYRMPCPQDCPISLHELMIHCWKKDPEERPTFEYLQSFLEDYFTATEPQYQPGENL

How the values were obtained:
Test in all cases: split reporter; Gaussia princeps luciferase complementation assay (GPCA) in HEK293T cells: Gluc2 on SKAP2/SKAP1, Gluc1 at the N (N1) or C (C1) terminus of the SRC kinase; 100 ng plasmid pair, luminescence read after lysis; normalized luminescence ratio (NLR), for mutants divided by that of wildtype SKAP2; loss of interaction = mean relative NLR among the nine kinases below 0.25
[1] = target: N1-fused SRMS (Src-related kinase lacking C-terminal regulatory tyrosine and N-terminal myristylation sites) (UniProt Q9H3Y6)
[2] = target: C1-fused FRK (Fyn-related Src family tyrosine kinase) (UniProt P42685)
[3] = target: C1-fused LCK (lymphocyte-specific kinase) (UniProt P06239)
[4] = target: C1-fused FGR (Feline Gardner-Rasheed sarcoma viral homolog) (UniProt P09769)
[5] = target: C1-fused HCK (hematopoietic cell kinase), wildtype (UniProt P08631)
[6] = target: N1-fused FRK (Fyn-related Src family tyrosine kinase) (UniProt P42685)
C1-fused YES = C1-fused YES (UniProt P07947)
[7] = target: C1-fused LYN (LCK/Yes-related novel protein tyrosine kinase) (UniProt P07948)
[8] = target: C1-fused SRMS (Src-related kinase lacking C-terminal regulatory tyrosine and N-terminal myristylation sites) (UniProt Q9H3Y6)
[9] = target: N1-fused BLK (B lymphocyte kinase) (UniProt P51451)
[10] = target: N1-fused FYN (FGR-YES1-related novel protein) (UniProt P06241)
[11] = target: N1-fused LCK (lymphocyte-specific kinase) (UniProt P06239)
[12] = target: N1-fused FGR (Feline Gardner-Rasheed sarcoma viral homolog) (UniProt P09769)

Measured: binding

B1: N2-SKAP1 (SRC kinase adaptor phosphoprotein 1) (protein, UniProt Q86WV1 1-359)
chain: MQAAALPEEIRWLLEDAEEFLAEGLRNENLSAVARDHRDHILRGFQQIKARYYWDFQPQGGDIGQDSSDDNHSGTLGLSLTSDAPFLSDYQDEGMEDIVKGAQELDNVIKQGYLEKKSKDHSFFGSEWQKRWCVVSRGLFYYYANEKSKQPKGTFLIKGYGVRMAPHLRRDSKKESCFELTSQDRRSYEFTATSPAEARDWVDQISFLLKDLSSLTIPYEEDEEEEEKEETYDDIDGFDSPSCGSQCRPTILPGSVGIKEPTEEKEEEDIYEVLPDEEHDLEEDESGTRRKGVDYASYYQGLWDCHGDQPDELSFQRGDLIRILSKEYNMYGWWVGELNSLVGIVPKEYLTTAFEVEER
binds: all assays above
